The entries come from a sample that favours the strongest signals as a whole.

The subject of one assay is Neu5Ac(a2-3)[GalNAc(b1-4)]Gal(b1-4)Glc. As to the kind of experiment: glycan array binding signal (z-score within array); higher = stronger binding. The following applies: glycan notation: IUPAC condensed, linker removed. In short, it runs like this:
(§1)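 The binding signal is a Z-score computed within each array and averaged over linkers. Arrays of the same protein sequence at different concentrations or buffers were also averaged together. Data originate from 3228 arrays in the Consortium for Functional Glycomics database, kept only where the protein sequence was available.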
As for “M-Ficolin (Homo sapiens) (chain not printed)”, the “glycan array binding signal (z-score)” value turned out to be 4.08.
Still for that read-out and setting: the same measure for “Gal 3 (Homo sapiens) (chain not printed)”: -0.274; for “M-Ficolin A256V (Homo sapiens) (chain not printed)”: 8.07.
The same measure, in the same setting: the same measure for “M-Ficolin Y271F (Homo sapiens) (chain not printed)”: 6.12; for “M-Ficolin G221F (Homo sapiens) (chain not printed)”: 6.55; for “M-Ficolin G221F A256V (Homo sapiens) (chain not printed)”: 4.43.

In another assay the test system is Neu5Ac(a2-6)Gal(b1-4)GlcNAc(b1-2)Man(a1-3)[Gal(b1-4)GlcNAc(b1-2)Man(a1-6)]Man(b1-4)GlcNAc(b1-4)GlcNAc. The assay is described as above. The following applies: glycan notation: IUPAC condensed, linker removed. An outline of the steps:
as §1
For the substance “Meso764 (Homo sapiens) (chain not printed)”, the “glycan array binding signal (z-score)” value was found to be 2.04.
The same measure, in the same setting: the value for “Siglec-2 (Homo sapiens) (chain not printed)” was 1.89; that for “M-Ficolin A256V (Homo sapiens) (chain not printed)” was -0.159; that for “CLEC-2 (Homo sapiens) (chain not printed)” was 0.851.
The same measure, in the same setting: the value for FGF2 (chain not printed) was -0.078.

The values above are taken from the supplement of paper PMC8728848.
